In paper PMC4336329 (PLoS ONE, 2015):
The campaign covered roughly 310,000 compounds. About 14,000 (4.5%) showed an effect of 50% or more. The effect is printed as a negative number. The list shows a part of the results.
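Note: peak tail current of the secondary pulse compared with the same well before compound.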

These compounds were tested against human ether-à-go-go-related gene (hERG) potassium channel (human, UniProt Q12809) (assay: primary screen, population patch clamp on CHO cells stably expressing hERG).
Chain of human ether-à-go-go-related gene (hERG) potassium channel (Q12809 whole entry, looked up): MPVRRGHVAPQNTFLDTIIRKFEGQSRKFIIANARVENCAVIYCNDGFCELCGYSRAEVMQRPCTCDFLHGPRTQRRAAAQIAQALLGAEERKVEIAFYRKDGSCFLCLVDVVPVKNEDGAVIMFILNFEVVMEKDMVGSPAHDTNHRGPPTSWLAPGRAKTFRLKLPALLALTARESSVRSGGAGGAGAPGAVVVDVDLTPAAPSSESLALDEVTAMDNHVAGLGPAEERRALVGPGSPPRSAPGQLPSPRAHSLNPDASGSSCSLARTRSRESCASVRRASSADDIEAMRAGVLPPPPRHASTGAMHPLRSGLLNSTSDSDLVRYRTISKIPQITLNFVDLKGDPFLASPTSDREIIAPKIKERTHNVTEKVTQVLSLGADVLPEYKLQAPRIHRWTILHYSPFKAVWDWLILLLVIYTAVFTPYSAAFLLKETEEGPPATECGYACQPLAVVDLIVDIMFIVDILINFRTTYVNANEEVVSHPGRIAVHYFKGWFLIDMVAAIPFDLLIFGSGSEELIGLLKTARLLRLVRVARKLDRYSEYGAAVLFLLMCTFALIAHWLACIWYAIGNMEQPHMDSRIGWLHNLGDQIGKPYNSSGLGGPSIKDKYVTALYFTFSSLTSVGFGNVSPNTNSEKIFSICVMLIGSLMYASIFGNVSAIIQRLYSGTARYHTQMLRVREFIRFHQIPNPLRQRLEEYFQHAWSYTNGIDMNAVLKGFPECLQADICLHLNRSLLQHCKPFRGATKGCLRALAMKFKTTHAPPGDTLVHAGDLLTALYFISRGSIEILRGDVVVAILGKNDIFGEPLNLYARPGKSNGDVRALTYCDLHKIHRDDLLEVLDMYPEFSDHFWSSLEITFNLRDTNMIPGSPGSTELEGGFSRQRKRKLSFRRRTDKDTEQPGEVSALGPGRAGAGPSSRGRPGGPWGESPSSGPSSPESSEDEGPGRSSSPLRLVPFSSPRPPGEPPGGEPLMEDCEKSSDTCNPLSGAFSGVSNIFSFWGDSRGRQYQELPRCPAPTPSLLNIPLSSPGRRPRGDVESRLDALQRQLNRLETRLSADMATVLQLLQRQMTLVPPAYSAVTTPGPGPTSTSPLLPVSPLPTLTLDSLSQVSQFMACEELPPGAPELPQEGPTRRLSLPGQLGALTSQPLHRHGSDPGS
With `S=C(NCCN1CCOCC1)Nc1cccc2ccccc12` the “hERG current change (%, negative = inhibition) at 10uM” value was 0.426%.
`CN(C)c1nc(OCCNC(=O)Nc2ccccc2)nc(N2CCCCC2)n1` was tested, and the “hERG current change (%, negative = inhibition) at 10uM” value was 0.123%.
`Cn1c(=NC(=O)c2cnccn2)sc2ccccc21` was tested, and the “hERG current change (%, negative = inhibition) at 10uM” value was 6.1%.
In the case of `CCOC(=O)c1c(NC(=O)CSc2nccc(=O)[nH]2)sc(C)c1C`, the “hERG current change (%, negative = inhibition) at 10uM” value is reported as 13.7%.
For `OC1CN=C2CCCc3c2n(c2ccc(Cl)cc32)C1` (stereo not drawn), the “hERG current change (%, negative = inhibition) at 10uM” value was -72.3%.
In the case of `CCN1CCCC1CNC(=O)Cn1nc(C)n2nc(-c3ccccc3)cc2c1=O` (stereo not drawn), the “hERG current change (%, negative = inhibition) at 10uM” value is reported as -23.3%.
For `CCOc1ncccc1C(=O)OCC(=O)NCCc1ccccc1`, the “hERG current change (%, negative = inhibition) at 10uM” value was 6.79%.
With `COc1cccc(CN2CCN(Cc3nc(-c4cccs4)oc3C)CC2CCO)c1` (stereo not drawn) the “hERG current change (%, negative = inhibition) at 10uM” value was -57%.
In the case of `c1ccc(N2CCN(C3CCSC3)CC2)cc1` (stereo not drawn), the “hERG current change (%, negative = inhibition) at 10uM” value is reported as -5.5%.
In the case of `Cc1cc(C)n(C(=O)CNC(=O)c2ccccc2Br)n1`, the “hERG current change (%, negative = inhibition) at 10uM” value is reported as 18.6%.
For `Cc1[nH]c(C)c(S(=O)(=O)NCc2ccc(F)cc2)c1C(=O)N1CCCC1`, the “hERG current change (%, negative = inhibition) at 10uM” value was 14.2%.
With `COc1ccc(OCCNC(=O)C(c2ccccc2)c2ccccc2)cc1` the “hERG current change (%, negative = inhibition) at 10uM” value was 2.86%.
`COc1ccc(CN2CCCCC2C)cc1C` (stereo not drawn) was tested, and the “hERG current change (%, negative = inhibition) at 10uM” value was -18.8%.
In the case of `COCCCNC(=O)C(=O)C1C(=O)Nc2ccccc21` (stereo not drawn), the “hERG current change (%, negative = inhibition) at 10uM” value is reported as 24.9%.
`O=C(Nc1cc(S(=O)(=O)N2CCCCC2)ccc1Cl)c1ccc(F)cc1` was tested, and the “hERG current change (%, negative = inhibition) at 10uM” value was -8.99%.
With `CSc1cccc(NC(=O)c2cnccn2)c1` the “hERG current change (%, negative = inhibition) at 10uM” value was -4.38%.
For `Cc1ccc(S(=O)(=O)NC(=O)Nc2ccc(F)c(F)c2)cc1`, the “hERG current change (%, negative = inhibition) at 10uM” value was 18.1%.
With `O=C(CCN1CCOCC1)Nc1ccccc1` the “hERG current change (%, negative = inhibition) at 10uM” value was 12.3%.
With `Cc1c(-c2cccc(Cl)c2)nc2ccccc2c1C(=O)N1CCC2(CC1)OCCO2` the “hERG current change (%, negative = inhibition) at 10uM” value was -47.4%.
In the case of `CC(C)CC(=O)N=C1SC2CS(=O)(=O)CC2N1CCc1ccccc1` (stereo not drawn), the “hERG current change (%, negative = inhibition) at 10uM” value is reported as 0.376%.
In the case of `CC(=O)N1CCc2cc(N=NC3=C(O)CCCC3=O)ccc21`, the “hERG current change (%, negative = inhibition) at 10uM” value is reported as 9.61%.
`CCOC(=O)N1CCN(Cc2nc3c(c(=O)[nH]c(=O)n3C)n2CCCc2ccccc2)CC1` was tested, and the “hERG current change (%, negative = inhibition) at 10uM” value was -37.5%.
In the case of `COn1c(SCc2cccnc2)nc2ccccc2c1=O`, the “hERG current change (%, negative = inhibition) at 10uM” value is reported as -14.2%.
With `COC(=O)C1=C(C(=O)OC)[C@@H]2N(C)c3ccccc3[C@@]23C[C@@H](C(=O)OC)N(C(=O)C2CCC2)C3=N1` the “hERG current change (%, negative = inhibition) at 10uM” value was -29.7%.
`CCCn1c(=O)c2c(C(F)(F)F)cc(-c3cccs3)nc2n(CCC)c1=O` was tested, and the “hERG current change (%, negative = inhibition) at 10uM” value was 6.84%.
`O=P(OCC(F)(F)C(F)F)(N1CCOCC1)N1CCOCC1` was tested, and the “hERG current change (%, negative = inhibition) at 10uM” value was 4.48%.
In the case of `O=C(NNc1nc2cc3c(cc2s1)OCCO3)c1ccccc1`, the “hERG current change (%, negative = inhibition) at 10uM” value is reported as -5.6%.
`Cc1ccc(NC(=O)CCc2c(C)nc3ncnn3c2C)nc1` was tested, and the “hERG current change (%, negative = inhibition) at 10uM” value was -11.3%.
In the case of `Cc1oc(-c2cccc(Cl)c2)nc1CSCC(=O)O`, the “hERG current change (%, negative = inhibition) at 10uM” value is reported as 14%.
For `CC1CN(C(=O)/C(=C/c2ccco2)NC(=O)c2ccccc2)CC(C)O1` (stereo not drawn), the “hERG current change (%, negative = inhibition) at 10uM” value was 20.3%.
With `COc1ccc(NC(=O)C2CCN(C(=O)c3ccccc3)CC2)cc1OC` the “hERG current change (%, negative = inhibition) at 10uM” value was -17.6%.
In the case of `CCOc1ccc(-n2c(N)c(C(=O)N3CCN(C)CC3)sc2=S)cc1`, the “hERG current change (%, negative = inhibition) at 10uM” value is reported as -51%.
In the case of `CC1=NN(c2ccccc2)C(=O)/C1=C/N(C)C`, the “hERG current change (%, negative = inhibition) at 10uM” value is reported as 6.17%.
With `COc1ccc(CCC(=O)Nc2ccc(OC)c(S(=O)(=O)N3CCCCC3)c2)cc1` the “hERG current change (%, negative = inhibition) at 10uM” value was -4.43%.
With `Cn1c(=O)[nH]c(=O)c2c1nc(NC1CCCC1)n2Cc1ccccc1` the “hERG current change (%, negative = inhibition) at 10uM” value was 15.8%.
In the case of `CCCc1cc(NCCCO)n2c(nc3ccccc32)c1C#N`, the “hERG current change (%, negative = inhibition) at 10uM” value is reported as -16.6%.
For `CCOc1ccccc1CN1CCN(C2CCN(c3ccccc3F)CC2)CC1CCO` (stereo not drawn), the “hERG current change (%, negative = inhibition) at 10uM” value was -71.6%.
In the case of `Cc1ccc(NC(=O)C(C)OC(=O)Cn2cnc3ccccc3c2=O)cc1` (stereo not drawn), the “hERG current change (%, negative = inhibition) at 10uM” value is reported as -12.4%.
`O=C(COC(=O)CN1C(=O)C2CCCCC2C1=O)NC1CCS(=O)(=O)C1` (stereo not drawn) was tested, and the “hERG current change (%, negative = inhibition) at 10uM” value was 3.9%.
With `O=C(NCC1CCCO1)c1csc2c1CCCCC2` (stereo not drawn) the “hERG current change (%, negative = inhibition) at 10uM” value was 2.13%.
For `COc1cc(NC(=O)C2CCCN2S(=O)(=O)c2ccc3c(c2)CCC(=O)N3)cc(OC)c1` (stereo not drawn), the “hERG current change (%, negative = inhibition) at 10uM” value was -29.9%.
With `Cl.O=C(OCCN1CCCCC1)c1ccccc1F` the “hERG current change (%, negative = inhibition) at 10uM” value was 9.94%.
For `Cc1ccc(CNC(=O)C2CCC(=O)N2C(C)C)cc1` (stereo not drawn), the “hERG current change (%, negative = inhibition) at 10uM” value was 15.8%.
In the case of `CCc1nc(NC(C)(C)C)c2cnn(-c3ccccc3)c2n1`, the “hERG current change (%, negative = inhibition) at 10uM” value is reported as 15%.
With `COc1ccc(S(=O)(=O)NC(C)C(=O)NCc2ccc3c(c2)OCO3)cc1OC` (stereo not drawn) the “hERG current change (%, negative = inhibition) at 10uM” value was 5.79%.
